# Measured values reported in publication PMC4336329 (PLoS ONE, 2015).
# Among all 310,000 compounds or so, about 2,200 (0.71%) showed an effect of 50% or more. Effects have a minus sign here. Some of the results follow.
# Target: human ether-à-go-go-related gene (hERG) potassium channel (human, UniProt Q12809)
# Assay: primary screen, population patch clamp on CHO cells stably expressing hERG
# Sequence of human ether-à-go-go-related gene (hERG) potassium channel (Q12809 whole entry, looked up): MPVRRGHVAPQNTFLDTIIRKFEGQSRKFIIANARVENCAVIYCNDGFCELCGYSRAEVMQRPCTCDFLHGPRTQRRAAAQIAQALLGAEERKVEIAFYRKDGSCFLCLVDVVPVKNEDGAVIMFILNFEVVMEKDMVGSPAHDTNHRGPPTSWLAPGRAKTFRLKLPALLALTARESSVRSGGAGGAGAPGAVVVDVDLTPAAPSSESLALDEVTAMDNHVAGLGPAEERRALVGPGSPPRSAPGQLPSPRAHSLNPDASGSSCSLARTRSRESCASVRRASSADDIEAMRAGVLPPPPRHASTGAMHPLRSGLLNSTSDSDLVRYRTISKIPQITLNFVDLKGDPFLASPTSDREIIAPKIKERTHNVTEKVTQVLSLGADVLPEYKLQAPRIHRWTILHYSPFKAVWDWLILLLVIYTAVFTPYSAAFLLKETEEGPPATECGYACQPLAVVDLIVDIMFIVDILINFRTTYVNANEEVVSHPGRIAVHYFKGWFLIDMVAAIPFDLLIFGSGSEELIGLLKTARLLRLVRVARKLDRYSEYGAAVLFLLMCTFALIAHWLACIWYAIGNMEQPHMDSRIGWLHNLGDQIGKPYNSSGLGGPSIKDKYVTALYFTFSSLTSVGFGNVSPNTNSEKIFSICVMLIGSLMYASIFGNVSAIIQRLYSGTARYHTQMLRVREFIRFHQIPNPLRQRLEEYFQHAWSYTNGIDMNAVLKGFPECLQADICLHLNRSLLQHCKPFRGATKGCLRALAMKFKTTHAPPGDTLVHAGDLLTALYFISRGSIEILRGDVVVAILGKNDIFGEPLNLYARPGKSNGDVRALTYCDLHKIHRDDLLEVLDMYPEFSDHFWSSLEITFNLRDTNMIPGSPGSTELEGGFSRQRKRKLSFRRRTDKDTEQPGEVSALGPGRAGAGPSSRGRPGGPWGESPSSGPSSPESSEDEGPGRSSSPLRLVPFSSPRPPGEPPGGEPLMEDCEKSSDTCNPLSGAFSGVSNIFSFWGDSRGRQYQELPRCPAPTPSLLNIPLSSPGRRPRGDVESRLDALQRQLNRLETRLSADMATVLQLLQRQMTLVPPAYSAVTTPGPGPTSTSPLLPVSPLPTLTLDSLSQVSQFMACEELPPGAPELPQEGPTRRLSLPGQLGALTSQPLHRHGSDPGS
row,SMILES,"hERG current change (%, negative = inhibition) at 1uM [%]"
1,CN(Cc1cccs1)C(=O)CN1C(=O)c2ccccc2S1(=O)=O,6.04
2,CCC(Oc1ccccc1)C(=O)Nc1nnc(S(=O)(=O)N2CCCC2)s1 (centres unmarked),16.7
3,CC1CCCC(NC(=O)C2CCN(S(=O)(=O)c3cnc[nH]3)CC2)C1C (centres unmarked),3.52
4,Cc1nc(Nc2cccc(F)c2)c2oc3ccccc3c2n1,8.71
5,O=C(O)CC(Cc1ccc(Cl)cc1)C(=O)NCc1ccccc1 (centres unmarked),6.22
6,CNC(=O)c1ccsc1NC(=O)C1CCN(S(=O)(=O)c2cccs2)CC1,0.629
7,CCOC(=O)C1(CCCc2ccccc2)CCN(Cc2cn(CC)nc2C)CC1,-59.8
8,Cc1nc(NC(=O)c2cccs2)ccc1Br,12.8
9,CC1(c2ccc(Cl)cc2Cl)OCC(Cn2ccnc2)O1.O=C(O)C(=O)O (centres unmarked),11.4
10,COc1ccc(Cc2nnc(N/N=C/c3ccc(C)o3)[nH]c2=O)cc1,14.1
11,COc1ccc(CCNC(=O)CCC(=O)NC2CCCCC2)cc1OC,10.5
12,CSc1nncc(/C(C)=N/O)n1,8.11
13,CCCCSc1ccc(NC(=O)c2cccnc2)cc1,10.1
14,CCn1cnc2sc(C(=O)Nc3ccccc3OC)c(C)c2c1=O,6.38
15,COC(=O)C1=C(c2ccc(F)cc2OCc2ccccc2)C[C@@H]2CC[C@H]1N2C(=O)NCCOc1ccccc1Cl,7.93
16,CCOC(=O)c1ccc(S(=O)(=O)N2CCNCC2)cc1,0.0993
17,CCOC(=O)CSc1nc2ccc(C)cc2[nH]1.Cl,9.46
18,CC(=O)OC[C@H]1O[C@H](C/C=N/OC[C@@H](O)[C@H]2O[C@@H]3OC(C)(C)O[C@@H]3[C@H]2O)C=C[C@@H]1OC(C)=O,3.95
19,CC(C)OCc1c(C(=O)OC/C(O)=C(\C#N)c2nc3ccccc3[nH]2)oc2ccccc12,7.53

row,SMILES,"hERG current change (%, negative = inhibition) at 1uM [%]"
1,CCCCN(CCCC)S(=O)(=O)c1ccc(NC(=O)Cc2cccs2)cc1,14.2
2,CC1CCCN(C(C(=O)Nc2ccc(C(C)C)cc2)c2ccc3c(c2)OCO3)C1 (centres unmarked),10.6
3,Cc1ccc2cccc(Oc3ccc([N+](=O)[O-])cc3[N+](=O)[O-])c2n1,14.5
4,Cn1nc(C(F)(F)F)c(-c2ccc(F)cc2)c1NC(=O)c1cccnc1,8
5,COCCN(C(=O)COC(=O)c1c(NC(C)=O)sc(C)c1C)c1c(N)n(Cc2ccccc2)c(=O)[nH]c1=O,-8.34
6,CC(C)N1CCNCC1.Cl,12.2
7,COc1cccc(C2CC(=O)N3CN(c4ccccc4F)CSC3=C2C#N)c1 (centres unmarked),7.39
8,COc1ccc(OC)c(Nc2cc(C)nc3ccc(C)cc23)c1,-35
9,CS(=O)(=O)N(CCc1ccccc1)CC(=O)NCc1ccco1,10
10,O=C(NCCN1C(=O)S/C(=C\c2ccc(Cl)cc2)C1=O)c1ccc(F)c(S(=O)(=O)N2CCOCC2)c1,0.812
11,CC(SC(=S)N1CCCC1)C(=O)O (centres unmarked),12.8
12,O=C(NC(=S)NCCC1=CCCCC1)c1ccccc1Br,9.72
13,COc1ccc(CCC(=O)NCCS(=O)(=O)N2CCN(c3ccc(F)cc3)CC2)cc1,-18.6
14,O=C(CN1c2ccccc2Sc2ccccc21)N/N=C/c1ccccc1,3.12
15,COc1ccccc1-n1c(O)c(/C=C2\C=Nc3ccccc32)c(=O)[nH]c1=O,11.9
16,CCN1CCN(C(=O)C(C)N(c2ccc(C)cc2)S(C)(=O)=O)CC1 (centres unmarked),14.7
17,CC1C=CCC2C(=O)N(c3cccc(C(=O)NCCc4ccccc4)c3)C(=O)C12 (centres unmarked),6.34
18,COc1ccc(C(=O)OC2CCCCC2CN(C)C)cc1.Cl (centres unmarked),11.5
19,CC(C)CCn1nc(C(=O)OC(C)C(=O)NC(N)=O)c2ccccc2c1=O (centres unmarked),7.68

row,SMILES,"hERG current change (%, negative = inhibition) at 1uM [%]"
1,CC1=C(C(=O)NCc2ccccc2)C(c2cccs2)n2ncnc2N1 (centres unmarked),1.76
2,Cc1ccc2nc(-c3ccccn3)cc(C(=O)NC(C)C(C)(C)C)c2c1 (centres unmarked),7.41
3,COc1ccccc1NC(=O)Nc1cc(C(C)(C)C)nn1C,7.6
4,Cc1cc(C)c2sc(NC(=O)C3=COCCO3)nc2c1,7.36
5,O=C(c1cccc(-c2nnc(-c3ccccc3)o2)c1)N1CCCCC1,-5.13
6,Br.C=CCN1C(c2ccccc2)=CS/C1=C(\C#N)c1nnc2n1CCCCC2,-31.5
7,Cc1cccc(NS(=O)(=O)c2ccc(C)c(C(=O)NCC(c3ccccc3)N(C)C)c2)c1 (centres unmarked),3.09
8,Cc1nc(Cl)sc1C(=O)Nc1ccccc1Cl,15.3
9,COc1ccc(CNC(=O)C2CCN(S(=O)(=O)c3ccc4c(c3)C(C)(C)C(=O)N4C)CC2)cc1,10.1
10,CN(C)CCCn1c(SCCN2C(=O)c3ccccc3C2=O)nc2ccccc2c1=O,-19.9
11,O=C(COc1ccccc1Cl)NCc1ccncc1,-4.33
12,O=C(NC(=S)Nc1cccc([N+](=O)[O-])c1)C1CCCC1,8.11
13,O=C(c1ccnc(Cl)c1)N1CCCC(Nc2ccc(F)cc2)C1 (centres unmarked),14.7
14,COc1ccc(OC)c(S(=O)(=O)Nc2cc3c4c(c2)CCC(=O)N4CCC3)c1,14.9
15,Cc1ccnc(NC(=O)c2ccccc2NC(=O)c2ccccc2)c1,10.4
16,Cc1cc(OCCCC(=O)NC2=NCCS2)ccc1Cl,18.6
17,CCn1cnc2cc(NC(=O)c3ccc(C)cc3)ccc21,13.4
18,COc1ccc(NC(=O)CN(C)CC(=O)Nc2cccc(C(F)(F)F)c2)cc1,9.22
